# Assay results from patent publication US20210122795A1 (CITY OF HOPE, published 2021).
# Target: T1, CTLA-4-Fc (recombinant bivalent CTLA-4 fused to the human IgG1 Fc) (human, UniProt P16410 36-161, Homodimer through the IgG1 Fc (bivalent); the Fc is left out of the letters.)
# T1 construct: also called dimeric CTLA-4-Fc; CTLA-4 (in the SEC legends); not shown: human IgG1 Fc and any linker of the CTLA-4-Fc fusion
# Experiment: analytical size-exclusion chromatography of the mixture, relative absorbance at 230 nm
# Experimental: The masked mLcn2 was characterized in vitro by size exclusion chromatography and SPR analysis (FIG. 3 C/D). Admixtures of the masked mLcn2 and a recombinant bivalent CTLA-4 (also fused to the human IgG1 Fc) were incubated and applied to an analytical column. In the absence of MMP9, the combination eluted at the same position as the individual components. However, incubation with MMP9 led to an earlier elution, indicating the formation of a heterodimeric complex. […] Similar results were obtained using SPR (FIG. 3C). In these studies, monomeric CTLA-4 was chemically tethered to the chip and the masked mLcn2, MMP-cleaved masked mLcn2 and the n-mLcn2 (no N-terminal fusion) was passed over the chip.
# T1 sequence (P16410 36-161 limits assumed): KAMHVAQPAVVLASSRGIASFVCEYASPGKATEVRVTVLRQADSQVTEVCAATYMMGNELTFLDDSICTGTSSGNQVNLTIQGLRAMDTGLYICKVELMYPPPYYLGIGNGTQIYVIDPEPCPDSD
binder,measurement,value
"Mxx9 mLcn2-Fc (Pep16-Mxx9-mLCN2-IgG1, inactive MMP9 cleavage site) (Fc fusion, also called MMP9-mutated masked mLcn2 control; masked mLcn2 with non-cleavable linker) AGSCWSPLPFMCGGSVPGSGSSGSQDSTSDLIPAPPLSKVPLQQNFQDNQFHGKWYVVGLAGNRILRDDQHPMNMYATIYELKEDKSYNVTSVISSHKKCEYTIATFVPGSQPGEFTLGNIKSYGDKTSYLVRVVSTDYNQYAVVFFKLAEDNAEFFAITIYGRTKELASELKENFIRFSKSLGLPENHIVFPVPIDQCIDGSRSGGTSGGGSVPGSGSSGSTSGSGKSSEGSGQ[human IgG1 Fc and a few adjoining residues cut from this listing]",binding result,no binding
